In one test the target is T1, human CD40 (human, UniProt P25942 21-277).
T1 construct: whole, on cells; also called hCD40; CD40 on CHO-K1/hCD40 cells
Briefly: flow cytometry binding to CHOK1/hCD40 cells; supernatant as % of total reaction volume. As for the experimental part: In yet another experiment, the CHO-K1/hCD40 cells were incubated with increasing amounts of the neat culture supernatant of the Jurkat parental or Jurkat/hCSF1R-Fc-CD40L cells produced as discussed in Example 2. Binding was detected using flow cytometry and the MF was calculated and plotted as a function of the amount of the neat culture supernatant of Jurkat parental or Jurkat/hCSF1R-Fc-CD40L cells.
In general terms: A flow cytometer gives signals particle by particle.

Test [1] deals with anti-human CSF1R antibody. Briefly: MSD dual binding assay; Coat: anti-hCSF1R, Detect: anti-hCD40L; 3-fold dilution series drawn as bars. As for the experimental part:
(§1) Concentrated, de-salted culture supernatant was prepared as follows: 40 million Jurkat parental cells, Jurkat cells expressing human PD-1-Fc-4-1BBL chimeric protein (Jurkat/hPD-1-Fc-4-1BBL), Jurkat cells expressing human PD-1-Fc-OX40L chimeric protein (Jurkat/hPD-1-Fc-OX40L), or Jurkat cells expressing human CSF1R-Fc-CD40L chimeric protein (Jurkat/hCSF1R-Fc-CD40L) were cultured in 60 mL of media for 48 hours. After this, the media were harvested and concentrated 50-75× using AMICON-15 50K columns. Concentrated supernatant was desalted over a ZEBA desalting column or directly dialyzed in PBS and used in experiments. The resulting supernatant was also termed “neat” supernatant.
The CSF1R-Fc-CD40L chimeric protein harbors the extracellular domain of CSF1R protein domain at or near the N-terminus and the extracellular domain of CD40 Ligand (CD40L) protein domain at or near the C-terminus. To understand whether the extracellular domains of CSF1R and CD40L can simultaneously bind to respective antibodies, an anti-human CSF1R antibody was coated on a plate. Three-fold serial dilutions neat culture supernatants of Jurkat parental cells or Jurkat/hCSF1R-Fc-CD40L cells were added to the plate. […] The plate was incubated to allow capture of any protein by the plate-bound anti-human CSF1R antibody. […] Binding was detected using the MSD platform.

Test [2] has as its target T2, recombinant human CSF1 protein (human, UniProt P09603 33-190, limits assumed).
T2 sequence (looked up): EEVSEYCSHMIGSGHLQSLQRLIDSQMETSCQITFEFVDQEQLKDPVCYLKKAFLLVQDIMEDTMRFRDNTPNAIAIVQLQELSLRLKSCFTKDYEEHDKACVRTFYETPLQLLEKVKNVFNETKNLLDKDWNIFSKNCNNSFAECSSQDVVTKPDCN
The experiment in a line: MSD CSF1 binding; Coat: CSF1-his, Detect: anti-hCD40L-biotin then Streptavidin sulfo-tag; 3-fold dilution series drawn as bars. As for the experimental part: FIG. 10A and FIG. 10B show the quantitation of the binding of the ECDs of human CSF1R and CD40L present in the hPD-1-Fc-OX40L chimeric protein produced by the Jurkat/hPD-1-Fc-OX40L cells to their respective ligands. […] Human recombinant CSF1-coated MSD plates were incubated with increasing amounts of the culture supernatant of the Jurkat parental or Jurkat/hCSF1R-Fc-CD40L cells produced as discussed in Example 2. Binding was detected using anti-human CD40L-biotin, followed by the MSD streptavidin reagent.
To detect binding of the chimeric protein produced by Jurkat/hCSF1R-Fc-CD40L cells to human CSF1, which is a soluble protein, the MSD platform was used. Briefly, recombinant human CSF1 protein was coated on MSD plates. Increasing amounts of the neat culture supernatant of the Jurkat parental or Jurkat/hCSF1R-Fc-CD40L cells produced as discussed in Example 2 were added. The plates were incubated to allow capture of any CSF-1 binding protein by the plate-bound CSF1. To detect capture of the hCSF1R-Fc-CD40L chimeric protein by the plate-bound CSF1, anti-human CD40L-biotin antibody was added. The MSD streptavidin reagent was added for detection. The MSD signal was plotted as a function of the amount of the neat culture supernatant of Jurkat parental or Jurkat/hCSF1R-Fc-CD40L cells.

A further test concerns the target anti-human PD-1 antibody. Briefly: MSD dual binding assay; Coat: anti-hPD1, Detect: anti-h41BBL; 3-fold dilution series drawn as bars. As for the experimental part: as §1
The PD-1-Fc-4-1BBL chimeric protein harbors the extracellular domain of PD-1 protein domain at or near the N-terminus and the extracellular domain of 4-1BB Ligand (4-1BBL) protein domain at or near the C-terminus. To understand whether the PD-1 and 4-1BBL can simultaneously bind to respective antibodies, an anti-human PD-1 antibody was coated on a plate. Three-fold serial dilutions neat culture supernatants of Jurkat parental cells or Jurkat/hPD-1-Fc-4-1BBL cells were added to the plate. […] The plate was incubated to allow capture of any protein by the plate-bound anti-human PD-1 antibody. […] Binding was detected using the MSD platform.

The next test deals with T3, human PD-L1 (human, UniProt Q9NZQ7).
T3 construct: whole, on cells; also called hPD-L1; PD-L1 on CHO-K1/hPD-L1 cells
The experiment in a line: flow cytometry binding to CHOK1/hPDL1 cells; supernatant as % of total reaction volume. On the procedure: (§2) In one experiment, the HT1080/h4-1BB cells were incubated with increasing amounts of the neat culture supernatant of Jurkat parental or the Jurkat/hPD-1-Fc-4-1BBL cells produced as discussed in Example 2. Binding was detected using flow cytometry and the mean fluorescence intensity (MFI) was calculated and plotted as a function of the amount of the neat culture supernatant of Jurkat parental or Jurkat/hPD-1-Fc-4-1BBL cells. […] Further, the CHO-K1/hPD-L1 cells were incubated with increasing amounts of the neat culture supernatant of the Jurkat parental or Jurkat/hPD-1-Fc-4-1BBL cells produced as discussed in Example 2. Binding was detected using flow cytometry and the MFI was calculated and plotted as a function of the amount of the neat culture supernatant of Jurkat parental or Jurkat/hPD-1-Fc-4-1BBL cell.

In another test the target is T4, human 4-1BB (human, UniProt Q07011 24-255).
T4 construct: whole, on cells; also called h4-1BB; 4-1BB on HT1080/h4-1BB cells
Briefly: flow cytometry binding to HT1080/h41BB cells; supernatant as % of total reaction volume. On the procedure: as §2

By EC50 (read off the curve) is commonly meant the concentration that produces a half-maximal response.

Chain of human 4-1BB (Q07011 24-255): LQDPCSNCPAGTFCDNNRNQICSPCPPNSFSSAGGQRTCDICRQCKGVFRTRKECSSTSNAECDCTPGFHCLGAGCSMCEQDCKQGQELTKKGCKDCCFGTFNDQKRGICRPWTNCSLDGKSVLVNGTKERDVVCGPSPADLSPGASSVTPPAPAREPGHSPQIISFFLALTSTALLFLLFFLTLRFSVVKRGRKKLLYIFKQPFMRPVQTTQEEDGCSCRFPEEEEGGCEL
Chain of human CD40 (P25942 21-277): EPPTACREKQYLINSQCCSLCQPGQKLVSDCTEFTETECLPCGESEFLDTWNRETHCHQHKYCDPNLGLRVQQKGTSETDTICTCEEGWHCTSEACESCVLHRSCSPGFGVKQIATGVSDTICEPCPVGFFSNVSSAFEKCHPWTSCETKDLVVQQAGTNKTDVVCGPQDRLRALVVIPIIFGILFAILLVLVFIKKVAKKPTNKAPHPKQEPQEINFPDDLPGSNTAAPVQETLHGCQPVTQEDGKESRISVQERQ
Chain of human PD-L1 (Q9NZQ7 19-290): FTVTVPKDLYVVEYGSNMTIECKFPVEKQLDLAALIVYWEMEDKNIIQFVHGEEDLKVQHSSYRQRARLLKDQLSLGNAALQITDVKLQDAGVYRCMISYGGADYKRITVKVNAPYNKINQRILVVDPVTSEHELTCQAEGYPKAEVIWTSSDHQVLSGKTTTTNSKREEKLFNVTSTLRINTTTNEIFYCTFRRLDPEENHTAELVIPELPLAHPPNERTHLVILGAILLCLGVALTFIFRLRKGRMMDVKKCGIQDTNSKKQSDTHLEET

B1: human CSF1R-Fc-CD40L heterologous chimeric protein (Fc fusion)
chain: [sequence of about 500 residues not given]SKYGPPCPPCPAPEFLGGPSVFLFPPKPKDQLMISRTPEVTCVVVDVSQEDPEVQFNWYVDGVEVHNAKTKPREEQFNSTYRVVSVLTVLHQDWLSGKEYKCKVSSKGLPSSIEKTISNATGQPREPQVYTLPPSQEEMTKNQVSLTCLVKGFYPSDIAVEWESNGQPENNYKTTPPVLDSDGSFFLYSRLTVDKSRWQEGNVFSCSVLHEALHNHYTQKSLSLSLGKIEGRMDHRRLDKIEDERNLHEDFVFMKTIQRCNTGERSLSLLNCEEIKSQFEGFVKDIMLNKEETKKENSFEMQKGDQNPQIAAHVISEASSKTTSVLQWAEKGYYTMSNNLVTLENGKQLTVKRQGLYYIYAQVTFCSNREASSQAPFIASLCLKSPGRFERILLRAANTHSSAKPCGQQSIHLGGVFELQPGASVFVNVTDPSQVSHGTGFTSFGLLKL
notes: Tested as secreted protein in Jurkat supernatant, as protein secreted in co-culture and as purified protein; also called hCSF1R-Fc-CD40L; chimeric protein in neat culture supernatant of Jurkat/hCSF1R-Fc-CD40L cells
For B1, the binding result in the test with human CD40 is “binds”. Besides, the “EC50 (read off the curve)” value in test [1] and in test [2] was around 0.5 µg/mL throughout.

B2: human PD-1-Fc-4-1BBL heterologous chimeric protein (Fc fusion)
chain: LDSPDRPWNPPTFSPALLVVTEGDNATFTCSFSNTSESFVLNWYRMSPSNQTDKLAAFPEDRSQPGQDCRFRVTQLPNGRDFHMSVVRARRNDSGTYLCGAISLAPKAQIKESLRAELRVTERRAEVPTAHPSPSPRPAGQFQSKYGPPCPPCPAPEFLGGPSVFLFPPKPKDQLMISRTPEVTCVVVDVSQEDPEVQFNWYVDGVEVHNAKTKPREEQFNSTYRVVSVLTVLHQDWLSGKEYKCKVSSKGLPSSIEKTISNATGQPREPQVYTLPPSQEEMTKNQVSLTCLVKGFYPSDIAVEWESNGQPENNYKTTPPVLDSDGSFFLYSRLTVDKSRWQEGNVFSCSVLHEALHNHYTQKSLSLSLGKIEGRMDD[sequence of about 200 residues not given]
notes: Tested as secreted protein in concentrated Jurkat supernatant and as purified protein; also called hPD-1-Fc-4-1BBL; hPD1-Fc-4-1BBL
As to B2, the “EC50 (read off the curve)” value in the test with anti-human PD-1 antibody was around 0.1 µg/mL. Moreover, the binding result with human PD-L1 and in the test with human 4-1BB was “binds” in each case.

The values are drawn from US20220259281A1 (SHATTUCK LABS, published 2022).
